Measured values as given in PubChem BioAssay AID2675 (National Center for Advancing Translational Sciences (NCATS), 2010).
About 100 (0.036%) of roughly 280,000 compounds were called active. The shares of active, inactive and inconclusive entries below differ from those in the screen. Calls follow the shape of the dose curve; as a rule, active = well fitted inhibition curve with a large enough effect in the signal ratio, with a control signal flat (not every such curve was filed as active); inconclusive = small, poorly fitted or top-dose-only effect, or effect the other way, or a change in a side signal; inactive = no such curve, though single readings can be large or run the other way; the % refers to the signal ratio. Potencies of inconclusive entries are doubtful fits and often do not repeat. “Side channel” marks fits to a control or component signal instead of the main read-out.

The compounds below were run against Muscleblind-like protein 1 (Homo sapiens) (UniProt Q9NR56) (assay: qHTS Assay for Inhibitors of MBNL1-poly(CUG) RNA binding). Settings: TR-FRET MBNL1-His/biotin-(CUG)12 binding, 665/545 ratio; series mostly up to 57.5 µM.
Chain of UniProt Q9NR56 (Q9NR56 whole entry, looked up): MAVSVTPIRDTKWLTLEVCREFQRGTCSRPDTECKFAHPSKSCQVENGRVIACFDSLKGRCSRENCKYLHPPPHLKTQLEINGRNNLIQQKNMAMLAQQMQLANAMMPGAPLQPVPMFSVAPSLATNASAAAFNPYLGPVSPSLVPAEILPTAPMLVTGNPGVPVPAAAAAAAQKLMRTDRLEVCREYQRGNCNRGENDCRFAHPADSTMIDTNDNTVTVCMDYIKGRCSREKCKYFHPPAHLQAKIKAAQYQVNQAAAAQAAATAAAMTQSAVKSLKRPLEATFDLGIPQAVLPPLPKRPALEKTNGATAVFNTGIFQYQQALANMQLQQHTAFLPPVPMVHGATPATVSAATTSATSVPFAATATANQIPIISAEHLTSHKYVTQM
Method in brief: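 Compounds (final 92 nM to 58 uM) are added to His-tagged MBNL1 and biotin-(CUG)12, then terbium anti-His antibody and streptavidin-XL665 (5 nM final). After 60 min at room temperature, the 665/545 nm ratio is read.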
Potency is read from the fitted curve at half-maximal effect; tags tell the direction and shape of the fitted curve or compound fluorescence and quenching.

SMILES | Potency
O=C(CNc1cccc2ccccc12)N/N=C/c1ccccn1 | inconclusive: 35.5 µM [quencher, side channel, single point]
O=C(CSc1nnc(-c2ccccc2)c(-c2ccccc2)n1)NCc1ccco1 | inconclusive: 8.91 µM [quencher, side channel, full curve]
Cc1cccc(Cc2nnc(CCC(=O)N(C)CCc3ccccc3)o2)c1 | inactive
CC1=NN(c2ccccc2)C(=O)/C1=C\c1ccc(Oc2ccc([N+](=O)[O-])cc2[N+](=O)[O-])cc1 | inconclusive: 12.6 µM [quencher, side channel, partial curve]
O=C(Cc1ccc(Cl)cc1)Nc1ccc(-c2nnc(-c3ccco3)o2)cc1 | inconclusive: 79.4 µM [inhibitor, partial curve]
Clc1ccc(-n2nnnc2-c2cnc(-c3ccncc3)nc2-c2cccs2)cc1 | inconclusive: 39.8 µM [quencher, side channel, single point]
Cc1cc(SCC(=O)c2ccccc2)nc(=O)[nH]1 | inconclusive: 25.1 µM [quencher, side channel, partial curve]
CCCCCCC1CC(CCc2nc(=S)[nH][nH]2)C(=O)O1 (stereo not drawn) | inactive
O=C(COc1cc(F)ccc1[N+](=O)[O-])NCCCc1ccccc1 | inactive
CCN(CC)c1ccc(/C=N/NC(=O)CNC(=O)c2cccnc2)cc1 | inconclusive: 28.2 µM [quencher, side channel, single point]
CC(C)C(=O)C1=Cc2cc([N+](=O)[O-])ccc2OC1N1CCOCC1 (stereo not drawn) | inconclusive: 31.6 µM [quencher, side channel, partial curve]
CCCCNc1nc2ccccc2n1CC(=O)N1CCc2ccccc2C1 | inactive
COc1cc(-c2nnc(COc3ccc4ccccc4c3)o2)cc(OC)c1OC | inactive
Cc1ccc(C(=O)NN2C(=O)/C(=C/c3cccn3C)SC2=S)cc1 | inconclusive: 5.01 µM [quencher, side channel, full curve, poor fit]
COC(=O)c1ccc(/C=N/NC(=O)c2ccc3nc[nH]c3c2)cc1 | inconclusive: 2.82 µM [quencher, side channel, full curve, poor fit]
COn1c(=O)c(=O)n(O)c2ccccc21 | inconclusive: 25.1 µM [quencher, side channel, single point]
COCCN(C(=O)COC(=O)c1ccc(C=O)cc1)c1c(N)n(Cc2ccccc2)c(=O)[nH]c1=O | inconclusive: 20 µM [quencher, side channel, partial curve]
COc1ccc(O)c(C(=O)c2cnc3c(c2)c(-c2ccc(F)cc2)c(C#N)c(=O)n3C)c1 | inconclusive: 12.6 µM [quencher, side channel, partial curve]
Cc1cc(C(=O)Nc2sc3c(c2C#N)CCCC3)no1 | inconclusive: 2.82 µM [quencher, side channel, partial curve]

SMILES | Potency
O=C(O)CCCCCCC1C(=O)NC(=O)N1CCC(O)C1CCCCC1 (stereo not drawn) | inconclusive: 251 µM [inhibitor, single point]
Cn1c(O)c(N=NC(=O)c2ccco2)c2ccccc21 | inconclusive: 7.94 µM [quencher, side channel, partial curve]
COc1ccc(-c2nc3c(c(=O)c4ccccc4n3C)c(=O)n2Cc2ccccc2)cc1 | inconclusive: 39.8 µM [fluorescent, side channel, single point]
C/C(CC(C)C)=N\Nc1ccc(S(N)(=O)=O)cc1[N+](=O)[O-] | inconclusive: 14.1 µM [quencher, partial curve]
COc1ccc(CCN2CN(S(=O)(=O)c3ccccc3)c3nc4ccccc4nc32)cc1 | inconclusive: 0.0891 µM [fluorescent, side channel, full curve, poor fit]
Cc1ccc(-c2cn(C[C@H]3CC[C@@H]([C@@H]4CC[C@H](Cn5cc(-c6ccc(C)cc6)nn5)O4)O3)nn2)cc1 | inactive
Cc1nnc(C)n1/N=C/c1ccc(-c2ccccc2)cc1 | inconclusive: 14.1 µM [quencher, side channel, partial curve]
OCCN1CCN(Cc2cc(Cl)c3cccnc3c2O)CC1 | inconclusive: 25.1 µM [quencher, single point]
Cc1c(C(=O)N2CCOCC2)sc(NC(=O)c2ccc([N+](=O)[O-])cc2)c1C#N | inconclusive: 2.82 µM [quencher, side channel, full curve]
CC1(C)OC(=O)C(=NNc2ccccc2[N+](=O)[O-])C(=O)O1 | inconclusive: 7.08 µM [quencher, partial curve]
CCc1nnc(NC(=O)CSc2nc3ccccc3c(=O)n2CCCOC)s1 | inconclusive: 100 µM [inhibitor, single point]
C/C(Cn1nnc([N+](=O)[O-])n1)=N\NC(=O)c1ccc(C)cc1 | inconclusive: 11.2 µM [quencher, side channel, partial curve]
CC(C)[C@H]1CC[C@@H](C)C(C(=O)c2ccccc2)C1=O (stereo partly drawn) | inconclusive: 79.4 µM [inhibitor, single point]
Cc1oc(-c2ccc(Cl)cc2)nc1CN1CCCC(C(=O)NCc2ccco2)C1 (stereo not drawn) | inactive
Cc1ccc(/C=N/NC(=O)Cn2nc(C)c([N+](=O)[O-])c2C)o1 | inactive
CSc1ccccc1NC(=O)Cc1ccccc1[N+](=O)[O-] | inconclusive: 35.5 µM [quencher, side channel, single point]
Cc1ccc2ncnc(Oc3ncccc3[N+](=O)[O-])c2c1 | inconclusive: 17.8 µM [quencher, side channel, partial curve]
O=c1cc[nH]c2ccc([N+](=O)[O-])cc12 | inconclusive: 14.1 µM [quencher, side channel, partial curve]
COc1ccc(N2CCN(CC(=O)Nc3nnc(-c4ccccc4)s3)CC2)cc1 | inconclusive: 28.2 µM [quencher, side channel, single point]
